Measurements: PubChem BioAssay AID485344 (National Center for Advancing Translational Sciences (NCATS), 2010)
Several values for one entry are separate records, joined by “and”; a condition that tells them apart may be missing. Equal values may be shown once. The campaign covered roughly 340,000 compounds. About 6,900 (2%) were called active. Rule as the data show it: active = inhibition above about 30%; inactive = below that, where a call was filed. The list shows a part of the results, in another mix than the full data. The source gives no active or inactive call for entries shown without one.

These compounds were tested against D(2) dopamine receptor (Homo sapiens) (UniProt P14416) (assay: HTS Assay for Allosteric Antagonists of the Human D2 Dopamine Receptor: Primary Screen for Antagonists). Conditions: HEK293 TREx D2 cells, calcium flux, dopamine EC80; at 10 µM; stronger effect = higher value.
UniProt P14416, sequence (P14416 whole entry, looked up): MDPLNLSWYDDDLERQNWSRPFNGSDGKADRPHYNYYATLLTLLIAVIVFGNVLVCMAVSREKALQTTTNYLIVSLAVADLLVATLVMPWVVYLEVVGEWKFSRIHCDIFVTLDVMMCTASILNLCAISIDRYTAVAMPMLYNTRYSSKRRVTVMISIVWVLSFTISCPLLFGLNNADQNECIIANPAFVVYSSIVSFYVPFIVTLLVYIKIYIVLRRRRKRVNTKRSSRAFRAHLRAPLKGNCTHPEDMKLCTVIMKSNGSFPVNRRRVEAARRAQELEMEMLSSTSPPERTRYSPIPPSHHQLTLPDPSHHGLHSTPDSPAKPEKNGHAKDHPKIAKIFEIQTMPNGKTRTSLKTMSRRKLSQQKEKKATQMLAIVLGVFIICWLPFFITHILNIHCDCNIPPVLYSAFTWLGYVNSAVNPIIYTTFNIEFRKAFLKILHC
In short: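 Compounds are added to dye-loaded, induced HEK293 T-REx cells coupled to calcium release via D2; after a 3 min kinetic read an EC80 dopamine stimulus is given and fluorescence is recorded for 3 more min.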
Also: 0% is about no effect.

Compound	inhibition
CC(C)c1cccc(C(C)C)c1NC1=NS(=O)(=O)c2ccccc21	7.53%
COc1ccccc1NC(=O)NCCN1CCN(c2cccc(Cl)c2)CC1	active: 53.2%
CCOC(=O)c1noc2ncnc(N3CCC(C)CC3)c12	6.55%
COc1cccc(C(=O)CSc2nc3cccnc3n2C)c1	active: 37.5%
CCOc1ccc(Oc2nc(NC)nc(N3CCOCC3)n2)nn1	5.15%
Cc1cccc(Cn2cc3c(=O)n(CC(=O)Nc4ccc(C)c(F)c4)nc-3c3cc(F)ccc32)c1	0.879%
COc1ccc(CC(=O)NCc2nc3cccnc3n2Cc2ccc(C)cc2)cc1OC	8.03%
CCCC(=O)Nc1nnc2n1CCS2	-10.4%
O=C(CSc1nc2c(c(=O)[nH]1)CN(Cc1ccc3c(c1)OCO3)CC2)Nc1cccc(Cl)c1	14.9%
Cc1nc2c(c(C)nn2-c2ccccc2)c(C)c1CCC(=O)NCCc1ccccc1	2.17%
CN(C(=O)C1=CC(c2ccc3c(c2)OCO3)=NS(=O)(=O)N1C)c1ccccc1	-13.3%
COc1ccc(N2CC(NC(=O)c3cc4ccccc4o3)CC2=O)cc1OC (stereo unspecified)	-23.8%
CCc1cccc(NS(=O)(=O)c2c(C)nc3sc(CC)nn3c2=O)c1	-2.53%
Cc1ccc(NC(=O)Cn2c(=O)n(CCc3ccccc3)c(=O)c3c4c(sc32)CCCC4)c(C)c1	-0.731%
O=c1oc2ccc(Br)cc2cc1-c1csc(-c2ccccc2)n1	0.756%
CCOC(=O)c1cc(NC(=O)c2ccc(C)cc2)c(=O)n2c1oc1ccc(Cl)cc12	0.0849%
COC(=O)c1ccc(NC(=O)c2cc(=O)c3ccc(C)cc3o2)cc1	7.82%
CCCc1nc2ccccc2n2c(-c3ccc(C)cc3)c3c(=O)n(C)c(=O)n(C)c3c12	0.868%
Cc1ccc2c(c1)N(CC(=O)NCc1ccccc1Br)C(=O)c1cccnc1O2	11.4%
CC(=O)c1cccc(NC(=O)c2c(N3CCCC3=O)c3cc(F)ccc3n2C)c1	4.56%
CCSc1ncc(Cl)c(C(=O)Nc2c(C(=O)c3ccc(C)c(F)c3)oc3ccccc23)n1	-5.63%
COc1ccccc1NC(=O)c1c(NC(=O)c2ccco2)sc2c1CCC(C(C)(C)C)C2 (stereo unspecified)	-5.27%
O=C(NC1=NCCS1)C12CC3CC(CC(C3)C1)C2	active: 50.1%
Cc1cccc(N2CCN(C(=O)c3cnn(-c4cccc(Cl)c4C)c3C3CCNCC3)CC2)c1C	14.4%

Compound	inhibition
Cc1ccc(-c2noc(CSc3nnc(Cc4ccccc4)n3-c3cccc(C)c3)n2)cc1	4.53%
O=C(NCC(c1cccnc1)N1CCc2ccccc2C1)C(=O)Nc1ccc(Cl)cc1 (stereo unspecified)	-0.42%
Cc1cc(C)c(NC(=O)Cn2c(=O)n(Cc3ccco3)c(=O)c3ccc(C(=O)NC4CCCC4)cc32)c(C)c1	14.8%
Cn1nnc2c(NCCc3ccccc3)ncnc21	7.49%
CCN(C(=O)CCn1cnc2onc(-c3ccc(F)cc3)c2c1=O)c1ccc(OC)cc1	3.35%
COc1ccc(Nc2nc3ccccc3c3nnc(C)n23)cc1Cl	16.3%
CCc1cccc(-n2nnc(-c3nc(-c4ccccc4Cl)no3)c2N)c1	-6.64%
O=C(CCS(=O)(=O)c1nc(-c2ccc3c(c2)OCO3)cc(C(F)(F)F)n1)Nc1ccccc1F	4.09%
O=C(NNC(=O)c1cccs1)c1ccc([N+](=O)[O-])cc1	active: 61.3%
CCn1c(=O)cc(SCC(=O)NCCc2ccc(Cl)cc2)c2ccccc21	9.54%
CCOC(=O)C1CCC(CN(Cc2ccc(Cl)cc2)S(=O)(=O)c2ccc(F)c(C(=O)Nc3cccc(F)c3)c2)CC1 (stereo unspecified)	-3.47%
Cc1cc(C)cc(OCCCOc2cccc3cccnc23)c1	active: 33.1%
COc1ccccc1Nc1cc(C(=O)NC2CCCC2)c2ccccc2n1	12.7%
COc1ccc(S(=O)(=O)N2CCCCC2)cc1C(=O)Nc1cccc(C(F)(F)F)c1	-0.291%
CCOC(=O)c1cnc(NCc2ccccc2OC)c2ccccc12	2.44%
S=C1Cc2ccccc2C(c2ccc(Cl)cc2)N1 (stereo unspecified)	active: 33%
COc1ccc(/C=C/C(=O)Nc2sc3c(c2C(N)=O)CCCC3)cc1	-16.7%
CCn1cc(C(=O)NCc2ccccc2OC)c(=O)c2cc(S(=O)(=O)N3CCCCC3)ccc21	9.13%
O=C(CCN1C(=O)C2C3C=CC(C3)C2C1=O)N1CC(=O)N(CCc2ccccc2)C(=O)C1 (stereo unspecified)	active: 31.3%
CCc1ccc2oc(C(=O)Nc3cccc(C(F)(F)F)c3)cc(=O)c2c1	4.18%
O=C(c1ccc(-c2ccccc2)cc1)C1CCCN(Cc2ccncc2)C1 (stereo unspecified)	active: 74.6%
CSc1nn(Cc2ccc(Cl)cc2)c(N(C(C)=O)C(C)=O)c1S(=O)(=O)c1ccccc1	15.4%
Cc1ccc(NS(=O)(=O)c2ccc3[nH]c(=O)ccc3c2)cc1N(C)C	-10.3%
C#CCOc1ccc(-c2nnc(Nc3cccc(C)c3)c3ccccc23)cc1	1.03%

Compound	inhibition
Cc1cccc(Cn2c(=O)n(CCc3ccccc3)c(=O)c3c(C)c(C)sc32)c1	-8.95%
Cc1ccc(NC(=O)c2cc(C)nc3c2c(C)nn3-c2cccc(Cl)c2C)c(C)c1	-7.48%
COc1ccc(-c2ccc(=O)n(CC(=O)Nc3ccc(C)cc3C)n2)cc1	-3.77%
O=c1n(Cc2cccc(C(F)(F)F)c2)c2ccccc2c2nc(-c3ccccc3)nn12	-9.81%
COc1ccc(-c2noc(CCC(=O)NCc3ccc(C)cc3)n2)cc1	-3.57%
Cc1ccc(CNC(=O)CCCCCn2c(=O)c3sccc3n(CC(=O)N(C)c3ccccc3)c2=O)cc1	-1.78%
CCOC(=O)c1cccc(NC(=O)Cn2ncc3c4ccccc4n(Cc4ccccc4)c3c2=O)c1	-3.4%
Cc1ccc(C(=O)Nc2ccc3oc(-c4ccc(C(C)(C)C)cc4)nc3c2)cc1	4.33%
COC(=O)c1ccc(OC)c(Cn2c(=O)n(Cc3ccccc3)c(=O)c3c2c2cc(OC)ccc2n3C)c1	-11.4%
CC(=O)c1ccc(NC(=O)C2=CC(c3ccc4c(c3)OCO4)=NS(=O)(=O)N2C)cc1	12.9%
CCCCOc1ccc(C(=O)N2CCN(CCc3ccccn3)CC2)cc1	-20.4%
CNC(=O)c1cc(Nc2nnc(-c3ccc(O)cc3)c3ccccc23)ccc1OC	2.11%
O=C1CCCc2cc(S(=O)(=O)NCC3CCC(C(=O)Nc4ccccc4F)CC3)ccc2N1 (stereo unspecified)	5.01%
CC(NC(=O)c1ccccc1NC(=O)c1nsc2ccccc12)c1ccccc1 (stereo unspecified)	-0.674%
COc1ccc(OC)c(NC(=O)CCN2CCN(c3ccccc3)CC2)c1	active: 80.4%
O=C(NCC12CC3CC(CC(C3)C1)C2)c1cc2nc(-c3ccccc3)cc(C(F)(F)F)n2n1	12.4%
COc1ccc(N2CCN(C(=O)c3cc4ccc5cccnc5c4[nH]3)CC2)cc1	10.6%
CS(=O)(=O)N(CC(=O)NCCc1ccccc1)c1cc(C(F)(F)F)ccc1Cl	-17.3%
Cc1cccc(-c2nnn3c2nc(NCCc2ccc(S(N)(=O)=O)cc2)c2cc(Cl)ccc23)c1	-1.25%
CSc1ccc(-c2nc3ccc(C)cn3c2Nc2ccccc2C)cc1	-7.63%
CCOc1ccc(NC(=O)CC2C(=O)OCCN2CC)cc1 (stereo unspecified)	18.4%
COc1ccc(OC)c(-n2cnc3cc(C(=O)NC4CCCCCC4)ccc32)c1	7.95%
COc1ccccc1NC(=O)c1cnc(SCC(=O)N2CCCc3ccccc32)n(C)c1=O	-18.4%
Cc1ccccc1CCNC(=O)c1ccc2c(c1)c(C)c(C)n2Cc1ccccc1	0.293%

Compound	inhibition
CCOc1ccc(CNC(=O)CSc2nnc(C)c3c(C)n(-c4ccccc4)nc23)cc1	6.73%
CN1CCN(C2=Nc3ccccc3Oc3ccc(Cl)cc32)CC1	active: 85.2% and active: 91%
CC(C)CN(CCCNC(=O)CN1C(=O)CSc2ccc(S(=O)(=O)N3CCOCC3)cc21)CC(C)C	22.1%
CCc1ccccc1N1C(=O)N(Cc2ccccc2C)c2ccccc2S1(=O)=O	13.2%
COc1ccc(S(=O)(=O)n2ccnc2)cc1C(C)(C)C	-22.8%
COc1ccc(OC)c2sc(N3CCN(C(=O)C4CC4)CC3)nc12	14.7%
Cc1ccc(S(=O)(=O)Nc2cccc(-c3cn4cccc(C)c4n3)c2)cc1	-17.2%
O=C(Nc1ccc(Cl)cc1Cl)c1cc(S(=O)(=O)N2CCc3ccccc32)ccc1F	18.1%
CCc1ccc(C2CC(=O)Nc3cc4c(cc32)OCO4)cc1 (stereo unspecified)	27.6%
Cc1ccc(C)c(Nc2nc3c(S(=O)(=O)c4ccc(C(C)C)cc4)nnn3c3ccsc23)c1	18.9%
Cc1cccc(N2CCN(C(=O)c3c(C)oc4ncnc(N5CCCCC5)c34)CC2)c1C	-6.21%
CCOC(=O)c1noc2nc(C)n(CC(=O)Nc3ccccc3F)c(=O)c12	11.2%
CC1=C(C(=O)N2CCN(c3cccc(C(F)(F)F)c3)CC2)C2(CCCCC2)OC1=O	17.7%
CC1=C(C)/C(=N/OC(=O)c2cccc([N+](=O)[O-])c2)C=CC1=O	active: 34%
Cc1cccc(-c2nc(CSc3nc4c(c(=O)[nH]3)CCC4)c(C)o2)c1	active: 43.4%
COc1ccccc1CNC(=O)CN1C(=O)CSc2ccc(S(=O)(=O)N3CCCCC3)cc21	4.26%
COC(=O)c1c(Oc2ccc(C(C)=O)cc2)nnc(-c2ccccc2)c1-c1ccccc1	-12.1%
CCCc1c(C)c2ccc(O)c(CN3CCN(c4ccc(F)cc4)CC3)c2oc1=O	-4.92%
Cc1ccc(NC(=O)Cn2cc3c(n2)CCCCC3)cc1	3.68%
Cc1ccc2c(c1)-c1nc(-c3ccc4c(c3)NC(=O)CO4)cc(-c3ccc(Cl)cc3)c1CO2	-8.79%
Cn1c(=O)c2c([nH]c(=O)n2Cc2ccc(Cl)cc2Cl)n(C)c1=O	-6.35%
Cc1ccc2nc(N3CCN(C(=O)C4CC4)CC3)sc2c1	2.63%
CC1CCCN(CCCNC(=O)c2cn(C)c3ccc(S(=O)(=O)N(C)C4CCCCC4)cc3c2=O)C1 (stereo unspecified)	6.79% and active: 36.5%
Cc1ccc(NS(=O)(=O)c2ccc3nc(-c4ccccc4)[nH]c3c2)c(Cl)c1	-3.34%
